Results from PubChem BioAssay (NCI).
Some compounds were tested as several samples or in several runs, with calls that do not always agree.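 96-well plates, one dose, 48 hours. Percent growth reported; active if below 10.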 Not every entry of the source has a single result; some have several. This list holds those alone. An entry can have further records. For some of these results: This drug was run again and again over the years, at its own concentration, as given; each value is one run. Counts like (3×) give the number of equal values in this list. Entries with a single value are a further part of the results. Activity calls are given as the source filed them.

Columns and labels:
[1] = tested on: SK-MEL-5 melanoma; test: NCI-60 one-dose screen, 48 h (100 = growth as untreated, 0 = no growth, -100 = all killed)
[2] = tested on: UACC-62 melanoma; test: as above; conditions: 0.25 µM; runs of 2006

COc1cccc2c1C(=O)c1c(O)c3c(c(O)c1C2=O)C[C@@](O)(C(=O)CO)C[C@@H]3OC1CC(N)C(O)C(C)O1 (some centres not stated)
growth ([1]; 0.25 µM, runs of 2012): inactive: 23, 21.1, 24.3, 36.8, 45.6, 43.4, 51.6, 37.8, 57.1, 63.1, 38.3, 26.2, 17.7, 16.6, 11.2, 15.4, 37.6, 36.7, 46.8 (2×), 52.2, 42.8, 43.7, 40.7, 43, 56.6 (2×), 42.3, 41.4 (2×), 46.4, 37.1, 11.1, 52.5, 31.4, 35.1, 53.7, 47.6, 55.2, 61.1, 59, 49.6, 47.7, 59.3, 56.1, 65.1, 69.4, 70.9, 66.2, 60.2, 65.7, 72.1, 25.2, 27.1, 37.4, 25.9, 25.7, 41.7, 55.7, 48.7, 50.9, 42.1, 45.9, 50, 50.8% and active: 6.53, 8.84, -2.08, -18.7, 8.07, 8.19% | growth ([1]; 0.25 µM, runs of 2013): inactive: 58, 64.4, 45 (2×), 41, 40.1 (2×), 46.1 (2×), 25.7 (2×), 27, 30.4, 34.4, 40.7, 39.7, 44.2, 38, 45.3, 49.8 (2×), 53.3, 53, 38.4, 45.6, 44.8, 47.9, 48.5, 48.2, 55.4, 29.4, 58.6, 55.1, 48.8, 24.2, 30.2, 37, 38.5, 30.6, 41.7, 37.7, 34.7, 49, 49.4, 42.9, 39.8, 44, 51.1, 59.6, 59.9, 67.4, 69.4, 62.9, 60.3, 58.5, 68.2, 14.5, 21.1, 15.3, 14, 14.2, 42.5, 29.5, 25.3, 34.3, 46.3, 39.1% and active: 4.1%, -1.54% | growth ([1]; 0.25 µM, runs of 2014): active: 6.88, 3.54, 7.24, -18.9, -5.26% and inactive: 14.1 (2×), 17.6, 28.1, 28.3, 12.2, 30.8, 36, 29.7, 25.8, 43.5 (2×), 61.3, 53.7, 47.3, 32.5, 37.8, 27.4, 15.9 (2×), 10, 12.5, 22.2, 21.1, 18, 19.6, 17.4, 32.3, 27, 23.4, 45.7, 41.5, 25.1, 42.7, 41.7, 30.3, 24.4 (2×), 28.5, 23.9, 33.7, 43.4, 51.7, 28.2, 61.1, 43.7, 27.7, 12, 29.1, 15.5, 21, 25.4, 40.4, 29.3, 42.4, 40.8, 48.3, 35.5, 20, 32.2, 46.3, 41.4, 38, 61.4, 55.4, 53.1, 41.2% | growth ([1]; 0.25 µM, runs of 2015): inactive: 11.6, 21.5, 22.4, 16.3, 32.6, 24.9, 22, 34 (2×), 13.8, 42, 38.9 (2×), 28.3, 44.9, 57.5, 36.2 (2×), 12.6, 30.6, 14.5, 35.6, 47.3, 61.5, 44.8, 40.8 (2×), 41, 38.3, 16.8, 23.9, 24.3, 30.4, 35.1, 20.4, 32.2, 48.2, 17.6, 27.1, 27.7, 33, 41.1 (2×), 17.7, 31.8, 50.8, 26.2, 18, 26.6, 44.5, 28.1, 58.6, 57.6, 44.4, 49.3, 48, 37.1, 46.5, 48.1, 34.2, 42.2, 30.8, 37.6, 34.4, 25.5, 31.4, 39.5% and active: 2.37, -5.75, 3.56, -7.36, 3.43, 9.51, -10.4, 5.65, 6.74% | growth ([1]; 0.25 µM, runs of 2016): inactive: 27, 25.4, 13.8, 20.5, 41.5, 66.3, 34.8 (2×), 16.5, 23.6 (2×), 57.5, 58.7, 50.2, 49.6, 36.1 (2×), 49.4, 41.1, 55.9, 54 (2×), 45.3, 35, 50.4 (2×), 38.6, 44.5, 12.1, 14.6, 26.5, 23, 33.1, 32.8, 45.4, 46.1 (2×), 42.7, 55, 43.4, 46.4, 41.2 (2×), 48.8, 50.9, 50.7, 50.6, 65.6, 40.1 (2×), 36, 32.5, 34, 49, 52.1, 25.8, 30.2, 35.4 (2×), 36.5 (2×), 37.4, 39.6, 41.7, 46.7, 37.7, 30.4, 49.5, 52.2, 34.9, 35.9, 29.2, 33.3, 40.5, 55.3, 61% and active: 2.57, 7.17, -1.83, 4.75, 1.56, 2.05, 6.67, -0.405% | growth ([1]; 0.25 µM, runs of 2017): inactive: 16.9 (2×), 25.3, 20.7 (2×), 24.9 (2×), 21.5, 17.8, 27.4, 34.4, 29.5, 38, 18.5, 21.4 (2×), 24.2, 17, 34.3 (2×), 37.2, 24.8, 28.4, 20.8, 28.1, 29.3, 37, 36.4, 45.3, 50.7, 51, 32.5 (2×), 52.2, 54.4, 16.7, 13.1, 17.6 (2×), 21.8, 25.2, 19.3, 27.8, 30.5, 23.9, 20.2 (2×), 16.6, 17.4, 24.6 (2×), 26.1, 21, 33.7, 33.9, 28.9, 30.9, 31.7, 29.8, 13.3, 22.6, 32.7, 17.5, 22.9, 19.4, 23.3, 18.4, 17.7, 28, 19.6, 25.6, 18.6, 46.4, 47.7, 54.3, 13.7, 15.8, 14.3% and active: 1.75%, 7%, 6.9% | growth ([1]; 0.25 µM, runs of 2018): inactive: 31.4, 35.5, 22.8, 25.7, 33.8, 31.1, 23.9 (2×), 31.7, 19.8, 14.4, 31.3, 32.7, 26.9, 27.5, 21.1, 24.8, 18, 14.8, 17.8, 30, 21.5, 23.4, 25.9, 18.9, 22.6, 22.3, 29.4, 13.5, 27.1, 42.3, 36.8, 30.3, 28.8, 39.8, 37.6, 36.5, 39.6, 55, 50.2, 58, 52.5, 55.9, 59.2, 51.2, 50.3, 29.6, 27.6, 11.9% and active: 8.63%, -9.2% | growth ([1]; 0.25 µM, runs of 2019): inactive: 12.7 (2×), 25.3, 13.4, 44.6, 32.6 (2×), 38.4 (2×), 44.2, 37.2, 44.7, 50.2, 12.8, 15.5, 23, 13.7, 25.8, 20.8, 22.9, 28.7, 15 (2×), 38.6, 26, 29.6, 41.5, 32.8, 33, 23.2, 22 (2×), 20.2, 26.9, 27.4, 38.2, 35.6, 29.5, 32.7% and active: 8.26, 7.77, 5.01, 8.12, 7.91% | growth ([1]; 0.25 µM, runs of 2020): inactive: 19.8, 45.4, 30.8, 29.2, 50, 43.2, 32.7, 35.7, 20, 19.6, 21, 34.1, 37.1, 48.4, 64.5, 38.5, 47.2, 60.4, 50.6, 43.6, 51.2, 54, 56.9, 63.1, 63.8% and active: 4.55% | growth ([1]; 0.25 µM, runs of 2021): inactive: 30.3, 43.8, 30, 40.1, 27.7, 35.5, 38 (2×), 34.9, 27.8, 29.3, 33.4, 25.2, 38.6, 19.8 (2×), 24.6, 15.2, 22.5, 15.5, 33.6 (2×), 28.2, 47.6, 52.5, 38.1, 21, 28, 53.6, 45.7, 37.5, 10, 11.2, 16.8, 30.8, 34.1, 29.6, 17.2, 26.8, 43.2, 59.4, 61.3, 47.1, 31.1, 52.7, 36.4, 16, 26, 10.5, 30.1, 22.6% and active: -2.26%, -1.16% | growth ([1]; 0.25 µM, runs of 2022): active: -90.8, -85.8, -92.7, -27.8, 3.27, -8.22, 2.02% and inactive: 27.1, 28.8, 14.2, 10.4, 29.6, 29.5, 41.1, 60.2, 39.7, 15.9, 49.2, 58.4, 16.9, 44.2, 50.3, 81.7, 33.3, 32.4, 25.7, 25.8, 38% | growth ([1]; 25 µM, runs of 1991): inactive: 13.9% and active: -97, -94.9, -95.9, -98.8 (2×), -98.5, -100 (2×), -97.1, -95.3, -93.3, -99.3, -99.5, -91% | growth ([1]; 25 µM, runs of 1992): active: -96.6, -61.7, -66.8, -98.7 (3×), -98.3, -100 (25×), -99.2 (2×), -99.6 (5×), -63.1, -33.6, -82.6 (2×), -98 (3×), -99.7 (4×), -97.7 (2×), -99.1, -53.9, -54.6, -25.8, -58.5, -87.4, -73.6, -75.7, -93.8, -96.7, -93.3 (2×), -96.2, -99.8 (5×), -83.1, -85.1, -71.7, -62.1, -97 (3×), -99, -96.5, -98.9 (2×), -98.2 (2×), -73.4, -54.8, -61.1, -93.6, -99.5 (3×), -97.4, -98.5, -84.3, -42.8, -51.4, -33.7, -93.7, -81.7, -94.5, -96.3 (2×), -55.3, -66.7, -85, -96.1, -94.1, -41.6, -92.4, -88.5, -27 (2×), -89.8, -96, -82.9, -43.4, -64.2, -96.8, -30, -97.1% and inactive: 20.5% | growth ([1]; 25 µM, runs of 1993): active: -98.2 (2×), -100 (9×), -38.4, -86.5, -98.4, -88.7 (2×), -76.8, -99.1, -99.7, -89.5 (2×), -86.2, -95.8, -68.6, -98, -96.4, -98.8 (2×), -58.5, -84.4 (2×), -90.2, -89.1, -51.1, -99.8, -39.2, -95.6, -98.9 (2×), -95.7, -98.6, -72.1, -90, -94.1, -84.3, -99.6, -99.2, 0.518% | growth ([1]; 25 µM, runs of 1994): active: -88.3, -100 (9×), -98.8, -99.7, -96.7 (2×), -98.4 (2×), -96.1, -90, -92.8, -97.1, -29.3, -99.6, -94.3, -95.9, -86.3, -97.7, -92.7, -93.8, -98, -84.5, -95.5, -76.4% and inactive: 75.6% | growth ([1]; 25 µM, runs of 1995): active: -87.6, -100 (6×), -80.1, -95.9, -81.3, -91.1 (2×), -94.2, -89.4 (2×), -88.2, -49.9, -48.7, -87.7, -95.4, -96.7, -60.8, -95.1, -98.3, -86.8, -58.8, -54.8, -44.6, -60.4, -25.5, -37.1, -82.1, -38.1, -84.9, -90.6, -88.7, 5.86, -83.4% | growth ([1]; 25 µM, runs of 1996): active: -62.6, -7.84, -100 (8×), -84.9, -63.2, -97.7 (2×), -54.8 (2×), -92.9, -94.7, -66.1, -97.9, -48.6, -93.3, -91.8, -93.2, -85.4, -95.1, 9.61, -79.4, -90, -84 (2×), -77.8, -69, -98.5, -88.9, -23.6, -97, -99.5, -96.5, -54.1, -58.3, -85, -86.9, -68.2, -5.81, -67.1, -81.4, -62.3, -73.2, 0.839, -58, -83.8, -91.7, -2.8, -69.6% and inactive: 104%, 89% | growth ([1]; 25 µM, runs of 1997): active: -91.6, -63.6, -76.3, -6.1, -69, -9.8, -92.1, -77.8, -98.5, -100 (6×), -98.9, -98.2, -98.7, -78.6 (2×), -82.2, -67.2, -77.9, -52.7, -99.3 (2×), -90.7, 1.49, -89.8, -96.7, -99.4, -88, -93.8, -90.6, -65.2, -60.1, -51.9, 8.81% | growth ([1]; 25 µM, runs of 1998): active: -96.5, -100 (5×), -99.1, -97.3, -89.4, -63.3, -92.5, -63.9, -77.3, -98.1 (2×), -90.4, -94.2, -91.4, -89.5, -74.2, -85.6, -98.8, -93.9, -76, -65.9% | growth ([1]; 25 µM, runs of 1999): active: -70.7, -62.2, -40.2, -93.5 (2×), -86.8, -100, -91.9, -41.9, -99.2, -69.6, -98.3, -36.9, -74.9, -77.2, -81.5, -57.8, -19.9% | growth ([1]; 25 µM, runs of 2000): active: -100% (2×), -28.7%, -93.5% | growth [2]: inactive: 27.9%
